The values that follow come from article PMC10726135.

This is one part of the list. At the low end of the ranking the order means little. The protein was read in a cell extract, so binding may be indirect.

In this assay the target is T1, HNF4alpha8 (COS-7 nuclear extract) (UniProt P41235-5).
T1 sequence: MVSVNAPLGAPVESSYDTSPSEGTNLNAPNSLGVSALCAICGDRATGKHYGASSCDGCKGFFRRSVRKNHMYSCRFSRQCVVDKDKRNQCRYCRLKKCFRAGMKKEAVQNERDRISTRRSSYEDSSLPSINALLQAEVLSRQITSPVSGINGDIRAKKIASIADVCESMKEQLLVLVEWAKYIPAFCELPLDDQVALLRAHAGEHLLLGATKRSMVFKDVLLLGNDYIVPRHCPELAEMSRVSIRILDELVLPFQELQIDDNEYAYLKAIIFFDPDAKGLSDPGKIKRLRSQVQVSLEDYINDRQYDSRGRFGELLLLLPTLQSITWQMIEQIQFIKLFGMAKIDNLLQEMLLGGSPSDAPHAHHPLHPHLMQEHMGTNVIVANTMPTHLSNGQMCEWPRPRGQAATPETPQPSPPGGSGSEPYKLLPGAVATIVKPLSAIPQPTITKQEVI
Put plainly: protein-binding microarray. The following applies: COS-7 nuclear extract on double-stranded Agilent 4x180k PBM; binding buffer, salt, pH and temperature not given; high values mean tight binding; double strand, one strand shown; sequences stand for … in …GCCTAGGGAGATTAGAGTATCGGTCGA
Regarding TGCGACTGAGCCCTAAGAAATCTCCAAGTC, the binding signal (log2 normalized intensity) was -1.29.
The value for CTAGGATCACGCCATGAGTTGGGGACAAAG was -1.24; that for AGGATTCTTTATCTTAGCTTCAGCTTTGCT was -1.35.
For TGTCTGGCTAAGACCTTTAGTTAGCCTTTC, the binding signal (log2 normalized intensity) was found to be 1.16.
On to AGAACGTTCCAAACCTACACAGACCCTCTT, for which the binding signal (log2 normalized intensity) was -0.978.
As to GCCCCATGCTGATAAGGGCCACAGATGGCC, the binding signal (log2 normalized intensity) was 0.367.
Take TCAAAGGGACAGCACTGGCATGCAGCAGGG: the binding signal (log2 normalized intensity) was -1.29.
The same measure for ACCTTTGGGCTCTGACCCGAAGGGTAGGAG: 0.687; for AGTGATAAGGAACCTAGGAAATCAAAAACC: -0.896.
As to GTAAATGATTCTCTTTGGAAATTGATTGGG, the binding signal (log2 normalized intensity) is -0.0269.
As for TGATAGCATCCCAGTAGAAAAAAAAATGGG, the binding signal (log2 normalized intensity) is -1.29.
The value for AAATCAGCCAGTGATTCAACTCTGACCCAT was 3.6; that for TGTTCCCGTCCGTGCGGTCGGGCGCGCGGG was -1.19; that for TGAAAGCCAAGGCAGATATGAAAGAGCCAT was -1.52.
The same measure for TTCCAGGGTTACCGGCAGAGAGAAGCCACT: -1.24; for CTGCCAAATATTGGGCAATGCTAGGTCTTT: -0.524.
As for GGTGGACAAGACTGGTTTTTCAGATCCCTC, the binding signal (log2 normalized intensity) was -1.22.
In the case of GCATGAGGCCCCTTGCAATGCTGGAGGGAC, the binding signal (log2 normalized intensity) is -1.37.
The value for CCGCTGGCGCCATCCAAAGGCCCGAGGGCC was -1.36; that for AAGTCTTTCCCTGCCAGTTCCATGTAATCC was 0.923; that for CCAAGTGAGTAAGGAAAGCCACTTCCTGGC was -1.4.
Turning to CTGGTGCAGTCCAAGAGGCCCAGGTAAACA, the binding signal (log2 normalized intensity) was -1.44.
On to GCAAACAGCACTCTCTGATTACACAGGCCT, for which the binding signal (log2 normalized intensity) is -1.25.
The value for AGCTACTAGCAAATCTGCCCAACCTTTGCC was 2.1; that for CTGGGAAGAGAAGGTGAACTTGCTCAACCT was -1.29.
The value for CTACCGTACCTAGGACAAAGCAAACACTCA was -1.31; that for GATGTTTGCCCATGATCATATGGACTATGT was 3.89; that for GTAACCTGCAAAGAGCAAACTCCAGTTGTA was -0.82.
The same measure for AGCTCCACAGCTGGACTTTGGCTGCAAAAT: 4.98.
Take ATTGTCAGGCCAGTAGGTCAGTGTCCCTCT: the binding signal (log2 normalized intensity) was 1.32.
The value for GCTAACAGTAAAACTGAGATCTAAGCGATA was -1.36; that for AGTGAGACAGACATGCGACATGAGGAGCCT was -1.23.
Take CTGGATCCGTTAACAGCGGCATTCCTGTCA: the binding signal (log2 normalized intensity) was -1.14.
As to TTCCCTGAGTTTCCATTAACTGAACCTAGA, the binding signal (log2 normalized intensity) was determined as 1.69.
Consider GTCTTAGGATCTGTGTTATGCTTGCAGGTG, for which the binding signal (log2 normalized intensity) amounted to 1.1.
Consider TACAAACAGCCCTGACATTCTTGAGCTGCT, for which the binding signal (log2 normalized intensity) is -1.24.
The same measure for TGTAGACATTGGAATGCGGGCTCCACCACT: -1.23; for CCATATCACATTTTAAGGTCTGGCATTCTT: 1.1.
As to GTCACCCTCCCCGCCACCCCCCAGAGGGCC, the binding signal (log2 normalized intensity) was 6.22.
In the case of TGAGCTTGAGTCCATCCCATCTTCCAGAAA, the binding signal (log2 normalized intensity) was 0.159.
TCCCCCATGAAATTGAGATAAACATGAAAC: the binding signal (log2 normalized intensity) is 2.15.
With ACAGTAGGGAAAGTGGGGGGAAAGAATAAC, the binding signal (log2 normalized intensity) was -1.32.
Consider TTCTAGAACCAGGAATCCTAGGGAAGAAAC, for which the binding signal (log2 normalized intensity) was -1.46.
The same measure for GGAAGGCAACCACAGCCTCTGCATTTGCTC: -1.34; for TTAAATAAGTCCTAAGCCTTATTATCTGCT: -1.22; for CTCTTCCAAGTGTTCTTTACTTCCTTTTGT: 1.25.
For TTTATTTACTTATGTTGTCCGGACACCAAC, the binding signal (log2 normalized intensity) is 1.38.
For the sequence TAAAAAATGCAAGTTTATCGAGCTTGATTT, the binding signal (log2 normalized intensity) is -1.16.
The value for GTGCACTTCTCTTTGAGTCCCAATCCCCCA was 4.6; that for TGGAGGAGGGCGAGGCCGAGCCTCAGCCGG was -1.39.
The value for GCACATGAATGATCAAAGGTTGGTTTTTGG was 3.51; that for TCCTCCCATTCCAGCTCTTTACTCAGGTCA was 1.62; that for CAGCCCCTTATCAGGAGAGGAGGCCCACAC was 0.00602.
Take CGGACTTTGTCCTTTGATTTTTTAAAGTAA: the binding signal (log2 normalized intensity) came out at 5.37.
Consider GATCAGTGTTGAGAATCCCTCCCCTGTGCA, for which the binding signal (log2 normalized intensity) stood at 3.72.
The same measure for GGCTAGCATTCCTGCACACCTGCCTTTGAT: -1.22; for CTTTTTGGGACTGATAACTTAGGCCCATAT: -1.28.
For the sequence TTCAACAGAACTGTTTGAGGGTAAAGATCT, the binding signal (log2 normalized intensity) came to 0.813.
For CTGCTTCTTGGGTCAAAGTCTCTGGTACAA, the binding signal (log2 normalized intensity) stood at 3.25.
TAGCTTATCATCTGATCCTTGTACCTGCGA: the binding signal (log2 normalized intensity) was determined as 2.98.
Take TCCTATTTCAACATCCTCTCAGGTCAAAGT: the binding signal (log2 normalized intensity) was 4.61.
The value for GTAAATTATCTTGATGGTTAAAGTCCAATC was 5.58.
Consider CCTTATCTGGCCGCCTAATCCCCTGGCCTT, for which the binding signal (log2 normalized intensity) was 1.71.
The same measure for TCTAGCTACAGGAGAACAAAGTTCACCTTT: 5.36.
GAGGCTCAGACCTGACCTTTGGATTCCCAG: the binding signal (log2 normalized intensity) amounted to 7.11.
The value for AGGACCTTGGGAAAGGAGAAGCTGGAGATA was -1.21.
CACCTGTGGGTAATTAACTCCCCCTGCCCC: the binding signal (log2 normalized intensity) amounted to 4.79.
Turning to ACAGCAGCTGACAGATGGTGACCAGACTAC, the binding signal (log2 normalized intensity) was -1.38.
The same measure for AGAGTTCATAATTTTGGACTTTGTGCAAAT: 5.92.
The value for GCGCGGCCTCCCCAGAGGCTGGTCAGAATT was 0.323; that for CCTTGATGTGTATTTGTAGCTTCAAACCAG was 1.52; that for ACACCAACCTGTTCCAAAGTCCACCGTGGT was 5.71.
